# Measurements reported in the supplement of paper PMC4166925.
# ± gives the standard deviation of the averaged measurements. In all, about 33,000 sequences were measured (“E-score (dimensionless, -0.5 to 0.5)”: median about -0.046, highest 2% from about 0.36 on). The list shows a part of the results.
# System: T1, SpTbr T-box DNA-binding domain (GST fusion)
# T1 sequence: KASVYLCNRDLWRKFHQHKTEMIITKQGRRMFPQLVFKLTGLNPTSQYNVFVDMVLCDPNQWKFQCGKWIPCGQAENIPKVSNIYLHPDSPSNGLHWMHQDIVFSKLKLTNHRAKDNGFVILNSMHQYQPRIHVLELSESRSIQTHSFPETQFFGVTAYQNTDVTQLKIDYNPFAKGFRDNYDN
# Experiment: PBM E-score of 8-mer (E-score (dimensionless, -0.5 to 0.5)); Tbr is Tbrain of the sea star Patiria miniata (Pm) or the sea urchin Strongylocentrotus purpuratus (Sp); higher = stronger binding preference; most listed sequences are background and not binding sites
# Conditions: the construct has about 5 more residues each side
# How it was run: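 Expression of GST-fused Tbr T-box DNA-binding domains, each holding the full T-box plus roughly five flanking residues, was carried out in BL21 E. coli at 20 °C, with purification by glutathione affinity chromatography. Universal Agilent arrays made double-stranded by primer extension were incubated with the protein at 200 nM in PBS (pH 7.5), then scanned and quantified. All ungapped 8-mers were scored from probe intensities, and each received an enrichment E-score from the Universal PBM Analysis Suite, averaged over duplicate arrays.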
row,Sequence,PBM E-score of 8-mer
1,CGTAATCA,0.155 ± 0.017
2,CTTACTCC,-0.125 ± 0.049
3,ATGGGTAA,-0.00095 ± 0.067
4,GTGGCAAC,0.351 ± 0.013
5,CAACACCG,0.312 ± 0.0065
6,CTATAGTC,0.0845 ± 0.049
7,ACTTACAA,0.0533 ± 0.067
8,AAGAGTAA,-0.113 ± 0.11
9,ATTCCTCG,-0.0472 ± 0.07
10,AACCGTAT,-0.12 ± 0.07
11,CAAACGGC,0.0265 ± 0.03
12,ATTGAAGG,-0.0895 ± 0.13
13,CCTGTGAC,0.263 ± 0.011
14,AAGCTGAC,0.00715 ± 0.026
15,CCGGCATC,-0.242 ± 0.041
16,GAGATTGC,0.116 ± 0.014
17,AGCGTAGC,-0.145 ± 0.015
18,AATAGCGG,-0.103 ± 0.092
19,GAGTATTA,-0.0219 ± 0.018
20,CCTTCGTC,0.0646 ± 0.02
21,CTCCGCCC,0.0177 ± 0.052
22,GCAGAGTA,-0.0293 ± 0.012
23,ACCGACCC,-0.0605 ± 0.077
24,ACCGCAGT,-0.139 ± 0.06
25,GAGCCCGA,-0.26993 ± 0.00026

row,Sequence,PBM E-score of 8-mer
1,AAAAGGAC,-0.0497 ± 0.078
2,AACCACTG,-0.317 ± 0.011
3,AAATGCCG,-0.00567 ± 0.027
4,CCGAACCA,-0.0377 ± 0.058
5,TCGGAGCA,-0.0265 ± 0.022
6,AGCCCGCA,-0.0671 ± 0.0044
7,ACCTGAGA,0.189 ± 0.016
8,CCCTCTAC,-0.151 ± 0.0082
9,AATGATTC,-0.195 ± 0.0094
10,GGACCCAC,-0.051 ± 0.038
11,CACGAGCG,0.124 ± 0.059
12,GGCACAAA,-0.107 ± 0.066
13,GACAAAGA,0.108 ± 0.038
14,CAGTGTAA,0.0331 ± 0.071
15,CACTCCTC,0.215 ± 0.021
16,CTACGACC,-0.343 ± 0.084
17,AGCTCCGG,-0.218 ± 0.048
18,AACCATTA,-0.185 ± 0.079
19,AGGAGCTC,-0.249 ± 0.036
20,CCGGTCTA,-0.154 ± 0.031
21,GAGGATGA,-0.0416 ± 0.068
22,AGACCATC,-0.271 ± 0.04
23,CAGGTCTA,-0.191 ± 0.055
24,ACGGAAGA,-0.0847 ± 0.06
25,ATATTATA,-0.0876 ± 0.021

row,Sequence,PBM E-score of 8-mer
1,ATACACCG,-0.0503 ± 0.067
2,CGGCCTGA,-0.114 ± 0.049
3,AAGCGGCC,0.0608 ± 0.058
4,ATTTAGAA,-0.1 ± 0.019
5,CCGTACCG,-0.154 ± 0.024
6,CTGGTCAA,-0.173 ± 0.0028
7,CTAGACCA,-0.204 ± 0.026
8,AAGTCTCA,0.00419 ± 0.049
9,CTAATGAA,-0.157 ± 0.12
10,AAAGATAG,-0.189 ± 0.0066
11,AACGCATC,-0.0722 ± 0.077
12,AGTTAAGC,-0.128 ± 0.015
13,ACTAACAC,0.402 ± 0.0071
14,CGCGAAAA,0.347 ± 0.04
15,CCTAATCG,-0.0735 ± 0.03
16,CTTTTGAA,-0.19 ± 0.05
17,CTTGGAGA,0.0481 ± 0.051
18,ATAATACG,-0.164 ± 0.022
19,AACGGAAA,-0.181 ± 0.007
20,CAGGCCCG,-0.165 ± 0.031
21,CACTCACG,0.266 ± 0.052
22,ACATACTG,0.177 ± 0.032
23,CGGTGCTC,-0.153 ± 0.061
24,AGTCTCGA,0.0678 ± 0.057
25,CTTCTCCC,-0.0328 ± 0.015

row,Sequence,PBM E-score of 8-mer
1,GTCCAGCA,-0.295 ± 0.06
2,CTGATACC,-0.127 ± 0.061
3,AGAAATCG,-0.0204 ± 0.017
4,GACTCATA,-0.127 ± 0.03
5,CGGCGCTC,0.0305 ± 0.016
6,TCGCGTAA,0.222 ± 0.071
7,AGTCCCCG,-0.205 ± 0.0044
8,AGTGAGAT,0.287 ± 0.033
9,AATTGATC,0.105 ± 0.036
10,CCGCTGGC,-0.00683 ± 0.0067
11,GAAACACC,0.256 ± 0.012
12,CATAAGGG,-0.134 ± 0.055
13,GCCCACTA,-0.0422 ± 0.07
14,AGCCTATA,-0.0951 ± 0.011
15,AGGGTCGG,-0.106 ± 0.043
16,AGAGCACT,-0.101 ± 0.045
17,CGGGTATA,0.00404 ± 0.063
18,CCCTTGCG,-0.0683 ± 0.034
19,ATGCGTAA,0.0126 ± 0.018
20,TATACCCA,-0.25 ± 0.027
21,CGCAAGTC,0.125 ± 0.012
22,AGTGTATC,-0.00438 ± 0.0012
23,ATGACCGA,-0.037 ± 0.011
24,CTACCCGA,-0.189 ± 0.061
25,AGAGGCGG,-0.0721 ± 0.049

row,Sequence,PBM E-score of 8-mer
1,AAACTCTG,-0.0161 ± 0.031
2,CGGGCACC,-0.0494 ± 0.071
3,AAAAGTTC,-0.0424 ± 0.077
4,ATTTTCTA,-0.243 ± 0.068
5,GGTACCAA,-0.0861 ± 0.086
6,TAGTGAAA,0.117 ± 0.023
7,CGTACTAG,-0.118 ± 0.054
8,GGACCTTA,-0.142 ± 0.051
9,CCCTAGGC,-0.0753 ± 0.015
10,CACTGTCC,-0.0715 ± 0.022
11,AACTGATA,0.139 ± 0.039
12,CTGCAACC,-0.0536 ± 0.021
13,CATTTGAA,-0.2 ± 0.012
14,CTCTCCGC,-0.0588 ± 0.019
15,GTACTTTA,-0.0653 ± 0.064
16,CCCAGCCG,-0.155 ± 0.011
17,AATAGATG,0.0328 ± 0.094
18,GTTAGTTA,0.0799 ± 0.077
19,CGTGCTGC,0.0546 ± 0.012
20,GCCGAGCC,0.0327 ± 0.056
21,ACACTCGA,0.283 ± 0.032
22,AAAAGGGC,0.0135 ± 0.081
23,AGGTAGAA,-0.0573 ± 0.049
24,CGAGTTGA,0.141 ± 0.015
25,GCACGGAA,-0.0749 ± 0.024

row,Sequence,PBM E-score of 8-mer
1,GCGCATCA,0.00186 ± 0.0034
2,AAAGGTGC,0.414 ± 0.01
3,GGGACTAA,-0.279 ± 0.029
4,AGCTGCTC,-0.0138 ± 0.042
5,CAGCTTAC,0.0578 ± 0.022
6,ATCGTACC,-0.157 ± 0.03
7,AAGTCCAA,-0.256 ± 0.05
8,CACGCAAA,0.191 ± 0.0077
9,AATTTCCA,-0.179 ± 0.038
10,GGTAGGCA,-0.079 ± 0.028
11,TACAGGGA,-0.244 ± 0.025
12,AAGCGACC,-0.243 ± 0.02
13,CGTCGGAC,0.0309 ± 0.014
14,AACGACCA,0.0727 ± 0.019
15,GGGGGCTA,-0.158 ± 0.037
16,AGAACTGG,-0.118 ± 0.044
17,GGAGGACA,-0.196 ± 0.045
18,ATGCTTCA,-0.077 ± 0.031
19,AATGGCAT,0.0574 ± 0.0016
20,AATACTGA,-0.0577 ± 0.0093
21,GGACCAGA,-0.246 ± 0.0026
22,TAAGACCA,-0.135 ± 0.052
23,ACATACGG,0.0524 ± 0.05
24,GGTCTAAA,0.0571 ± 0.071
25,CTCCACCA,-0.182 ± 0.078

row,Sequence,PBM E-score of 8-mer
1,ACTTTCTA,0.0124 ± 0.018
2,GAAACAAC,0.087 ± 0.018
3,CGAGCTGC,0.1 ± 0.054
4,AATGAGCG,-0.18 ± 0.018
5,CGATATCC,-0.0408 ± 0.052
6,AATTGGTG,0.0304 ± 0.052
7,GCGTCCAC,0.0462 ± 0.046
8,ACGGCGTC,0.108 ± 0.059
9,CGTATAAC,-0.0237 ± 0.03
10,GCTTAAAA,-0.315 ± 0.029
11,CATTTCCA,-0.162 ± 0.03
12,ATACTGCC,-0.236 ± 0.033
13,CAGTGTCC,-0.0304 ± 0.04
14,CCACCTTA,0.213 ± 0.01
15,GTCAGGAA,0.13 ± 0.092
16,ATAGCTTG,-0.0926 ± 0.011
17,ACGCTGAT,-0.0607 ± 0.083
18,AACCGGCT,-0.226 ± 0.059
19,GTAAAATA,-0.282 ± 0.098
20,CTCGCCCC,0.132 ± 0.0061
21,TAGTAAGA,-0.164 ± 0.011
22,ATAATAAG,-0.00135 ± 0.053
23,CGGCGGTC,-0.208 ± 0.0038
24,CCTCACTC,0.184 ± 0.025
25,AGGCTAAC,0.0112 ± 0.063

row,Sequence,PBM E-score of 8-mer
1,GTGTTGTA,0.273 ± 0.065
2,CAACACCC,0.433 ± 0.012
3,AACAAGTC,0.159 ± 0.088
4,CTCGGGGA,-0.217 ± 0.017
5,AAGACATA,-0.151 ± 0.0036
6,CTCCAGAA,-0.227 ± 0.033
7,ACATCTAT,0.139 ± 0.0045
8,GGACATAA,-0.0535 ± 0.023
9,AGCACCCC,0.27 ± 0.036
10,CGCGGGAA,0.166 ± 0.016
11,GTGAGTTA,0.115 ± 0.042
12,AGTGATGA,0.229 ± 0.033
13,CTCGCAAG,0.204 ± 0.032
14,AGTATTAA,-0.00558 ± 0.076
15,CAACTGAA,-0.018 ± 0.03
16,ATGGGGCA,-0.231 ± 0.014
17,GGAGATCA,-0.114 ± 0.015
18,ACCCAGGC,-0.115 ± 0.11
19,CCGCCGAA,-0.127 ± 0.13
20,CACGGGAC,-0.0856 ± 0.0094
21,GCCCAAGC,-0.24 ± 0.0088
22,AATGCGAC,0.0873 ± 0.0027
23,GCAGCCGC,-0.0103 ± 0.06
24,CTAAATTA,-0.0861 ± 0.098
25,AGTAGCGC,0.224 ± 0.014

row,Sequence,PBM E-score of 8-mer
1,GCTTGGAC,-0.281 ± 0.0098
2,GGTCGCCA,0.114 ± 0.069
3,AAAACTTG,-0.145 ± 0.051
4,CCATCCTA,-0.0982 ± 0.061
5,CGGGCCAC,-0.00788 ± 0.037
6,TAGAATCA,-0.0112 ± 0.055
7,ACTAGTGA,0.215 ± 0.0054
8,ATTAACCC,-0.0932 ± 0.059
9,CTCCCTTA,0.0182 ± 0.0024
10,CCCATGTC,-0.173 ± 0.024
11,CCCAATGA,-0.198 ± 0.013
12,AAGGTGCT,0.4354 ± 0.0022
13,TCGAAAGA,-0.186 ± 0.024
14,CTAAGCAC,-0.0895 ± 0.035
15,GACTAGGC,-0.0291 ± 0.016
16,CTCCATCC,-0.107 ± 0.033
17,GGTATGGA,-0.22 ± 0.034
18,AACAACCA,0.0272 ± 0.04
19,ACGCGTAG,0.207 ± 0.0081
